# Assay results reported in PubChem BioAssay AID1476 (National Center for Advancing Translational Sciences (NCATS), 2009).
# About 4,500 (2.2%) of roughly 200,000 compounds were called active. The inconclusive results got no clear call from the source; some entries with a clear call stand among them for comparison. The call rests on the fitted dose curve; in most records, active means well fitted inhibition curve with a large enough effect; inconclusive means small, poorly fitted or top-dose-only effect, or effect the other way; inactive means flat fitted curve, though single readings scatter. Potencies beside an inconclusive call are fits to weak or partial responses and may not hold up.
# Molecular target: Cruzipain (Trypanosoma cruzi) (UniProt P25779)
# Experiment: qHTS Assay for Promiscuous and Specific Inhibitors of Cruzain (without detergent); further: nearly all actives have a fitted effect of over 40% in size;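 on max response, negative = inhibition: plate controls were enzyme without inhibitor for no effect and buffer without enzyme for full effect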
# Conditions: purified cruzain, Z-FR-AMC fluorescence, no detergent
# How it was run: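 Purified cruzain at 1.5 nM, pre-incubated 15 min with compound at room temperature in 100 mM sodium acetate pH 5.5, 5 mM DTT, 0.00005% Triton X-100. Reaction started with 2 uM Z-FR-AMC; AMC fluorescence increase over 60 s gives rate.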
# Potency means the concentration at half of the fitted maximal effect; tags describe the fitted curve by direction and shape.
# Sequence of UniProt P25779 (P25779 whole entry, looked up): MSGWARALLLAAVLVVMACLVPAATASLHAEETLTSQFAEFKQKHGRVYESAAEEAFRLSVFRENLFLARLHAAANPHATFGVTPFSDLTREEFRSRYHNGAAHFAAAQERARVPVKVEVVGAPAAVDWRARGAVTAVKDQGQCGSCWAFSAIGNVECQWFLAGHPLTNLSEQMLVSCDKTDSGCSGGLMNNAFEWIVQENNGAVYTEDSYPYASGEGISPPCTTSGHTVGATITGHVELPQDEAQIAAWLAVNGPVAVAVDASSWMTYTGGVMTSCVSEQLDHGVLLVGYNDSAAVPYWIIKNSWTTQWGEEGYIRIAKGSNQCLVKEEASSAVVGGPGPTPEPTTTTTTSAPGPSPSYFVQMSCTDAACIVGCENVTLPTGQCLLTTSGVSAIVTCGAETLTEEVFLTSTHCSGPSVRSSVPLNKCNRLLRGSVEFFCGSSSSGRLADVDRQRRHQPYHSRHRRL
Structure (SMILES),Potency,"max response, negative = inhibition"
c1ccc(-c2nn3c(C4CCCCC4)nnc3s2)cc1,"inconclusive: 6.31 µM [inhibitor, single point]",–
C=CCn1c(=O)/c(=C/c2ccc(Cl)cc2)s/c1=C(/C#N)c1nnc2n1CCCCC2,"inconclusive: 25.1 µM [activator, single point]",–
CCOc1ccccc1NC(=O)C1CCCN1S(=O)(=O)c1ccc2c(c1)C(C)(C)C(=O)N2C (stereo unspecified),"inconclusive: 31.6 µM [activator, single point]",–
Cc1ccc(C)c(NC(=O)Cn2cc(C(=O)c3cccs3)c3ccccc32)c1,–,inactive: -3.6%
N#CC1=C(S)N=C(N)C(c2nc(-c3ccccc3)cs2)C12CCCC2 (stereo unspecified),"inconclusive: 31.6 µM [inhibitor, single point]",–
COC(=O)c1c(NC(=O)Cc2coc3ccc(C(C)C)cc23)sc2c1CCC2,–,inactive: -12.2%
N=C1/C(=C/c2cccn2CCOc2ccccc2)C(=O)N=C2SC=C(c3ccccc3)N12,active: 6.31 µM,–
COc1cccc(C(=O)Nc2nc(-c3ccc4c(c3)OCO4)cs2)c1,"inconclusive: 39.8 µM [inhibitor, single point]",–
O=C1NC(=O)C2(Cc3ccccc3N3CCOCC32)C(=O)N1c1ccccc1 (stereo unspecified),"inconclusive: 39.8 µM [activator, single point]",–
COc1cc(-c2nnc(COC(=O)C3c4ccccc4Oc4ccccc43)o2)cc(OC)c1OC,"inconclusive: 39.8 µM [activator, single point]",–
COc1ccc(CC(=O)Nc2cccc(/C(C)=N/NC(=O)c3cccc([N+](=O)[O-])c3)c2)cc1,"inconclusive: 39.8 µM [inhibitor, single point]",–
COc1ccc(-c2nnc(SCC(=O)N(C)C3CCCCC3)o2)cc1OC,–,inactive: 11.2%
CCC(=O)N1c2ccccc2CC1C(=O)NCc1ccc(N(C)C)cc1 (stereo unspecified),–,inactive: 1.25%
CCc1cccc(NC(=O)CN(c2ccc(OC)cc2)S(=O)(=O)c2c(C)n[nH]c2C)c1,"inconclusive: 31.6 µM [activator, single point]",–
CCOc1ccccc1NC(=O)C1CCN(S(=O)(=O)c2ccc3c(c2)CCCN3C(C)=O)CC1,"inconclusive: 39.8 µM [activator, single point]",–
CCCCN(CC)CCNC(=O)C1CCCN(c2ncnc3onc(C)c23)C1 (stereo unspecified),–,inactive: -10.4%
Cc1cccc(NC(=O)NCc2ccc3c(c2)cc(C)n3C)c1,active: 7.94 µM,–
CCOP(=O)(OCC)C(C#N)=C1SCN(c2ccc(Cl)cc2)CS1,active: 12.6 µM,–
Cc1ccc(N=C2NC(=O)CC(C(=O)Nc3cc(C(F)(F)F)ccc3Cl)S2)cc1 (stereo unspecified),"inconclusive: 31.6 µM [inhibitor, single point]",–
CCn1nc(C)c2c(-c3ccccc3)cc(=O)n(C(C)C(=O)NCCc3ccc(OC)c(OC)c3)c21 (stereo unspecified),"inconclusive: 31.6 µM [activator, partial curve]",–
CCOc1cc(-c2ccc(OC(=O)c3ccc(OC)cc3)c(OC)c2)cc(=O)c2c(C)oc(C)c12,–,inactive: 3.35%

Structure (SMILES),Potency,"max response, negative = inhibition"
COc1ccc(CCNC(=O)c2cc(-c3cc(C)c(C)cc3O)n[nH]2)cc1OC,"inconclusive: 1.26 µM [inhibitor, partial curve, poor fit]",–
NC(CCC(=O)NCS(=O)(=O)O)C(=O)O (stereo unspecified),–,inactive: 4.35%
CCOC(=O)CC(NC(=O)CCc1c(C)nc2c(c1C)c(=O)n(C)c(=O)n2C)c1ccc(OCC)c(OC)c1 (stereo unspecified),–,inactive: 4.82%
CC(=O)Nc1ccc(NC(=O)C(Cc2ccccc2)NS(=O)(=O)c2ccc3c(c2)oc(=O)n3C)cc1 (stereo unspecified),"inconclusive: 31.6 µM [activator, single point]",–
CC(CCc1ccccc1)NC(=O)CN1CCN(Cc2ccc(Cl)cc2)C1=O (stereo unspecified),"inconclusive: 31.6 µM [activator, single point]",–
COc1ccc(/C=C/C(=O)c2oc3ccc(F)cc3c2C)cc1,"inconclusive: 25.1 µM [inhibitor, single point]",–
O=C(Cn1c(-c2ccccc2)noc1=O)Nc1ccc(N2CCCCCC2)cc1,"inconclusive: 25.1 µM [inhibitor, single point]",–
O=C(Nc1nccs1)c1ccc(CSc2nnnn2-c2ccccc2)cc1,"inconclusive: 39.8 µM [inhibitor, single point]",–
O=C(C(NS(=O)(=O)c1cccs1)c1ccccc1)N1CCN(c2ccccc2)CC1 (stereo unspecified),"inconclusive: 39.8 µM [inhibitor, single point]",–
COc1ccc(NCc2cc3cc4c(cc3n(CC(=O)Nc3ccc(C)c(C)c3)c2=O)OCO4)cc1,active: 15.8 µM,–
N#Cc1c(-c2ccccc2Cl)cc(-c2ccccc2)nc1Br,"inconclusive: 39.8 µM [inhibitor, single point]",–
CC(C)C(C)NC(=O)COc1ccc(S(=O)(=O)N2CCOCC2)cc1[N+](=O)[O-] (stereo unspecified),"inconclusive: 31.6 µM [activator, single point]",–
CC(C)(C)OC(=O)N1CCC(c2c(C(=O)N3CCCCC3)cnn2-c2ccccc2Cl)CC1,"inconclusive: 25.1 µM [activator, single point]",–
Cc1ccc(C(=O)Nc2ccccc2C(=O)NCc2ccco2)cc1S(=O)(=O)N1CCCCC1,"inconclusive: 12.6 µM [inhibitor, partial curve]",–
Cc1ccc(C(C)C)c(OCc2nnc(SCC(=O)Nc3nccs3)n2C)c1,"inconclusive: 39.8 µM [inhibitor, single point]",–
CCc1ccc(NC(=O)Cc2ccc(-n3cccc3)cc2)cc1,"inconclusive: 31.6 µM [inhibitor, single point]",–
OCCNc1nc2ccc(Cl)cc2[nH]1,"inconclusive: 15.8 µM [inhibitor, partial curve]",–
Cc1ccc(-c2nnc(Nc3ccc(F)cc3)c3ccccc23)cc1S(=O)(=O)N1CCN(C)CC1,–,inactive: 1.04%
COc1ccc(NC(=O)COC(=O)/C=C/C(=O)OCC(=O)Nc2ccc(OC)c(Cl)c2)cc1Cl,active: 25.1 µM,–
COc1ccc(-c2cc(C(=O)Nc3cc(C)nn3-c3ccccc3)no2)cc1,"inconclusive: 6.31 µM [activator, partial curve]",–
